# Test results reported in article PMC4336329 (PLoS ONE, 2015).
# Among all 310,000 compounds or so, about 14,000 (4.5%) showed an effect of 50% or more. The effect is printed as a negative number. The list shows a part of the results.
# Target: human ether-à-go-go-related gene (hERG) potassium channel (human, UniProt Q12809)
# Assay: primary screen, population patch clamp on CHO cells stably expressing hERG
# 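Further: peak tail current of the secondary pulse compared with the same well before compound.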
# Sequence of human ether-à-go-go-related gene (hERG) potassium channel (Q12809 whole entry, looked up): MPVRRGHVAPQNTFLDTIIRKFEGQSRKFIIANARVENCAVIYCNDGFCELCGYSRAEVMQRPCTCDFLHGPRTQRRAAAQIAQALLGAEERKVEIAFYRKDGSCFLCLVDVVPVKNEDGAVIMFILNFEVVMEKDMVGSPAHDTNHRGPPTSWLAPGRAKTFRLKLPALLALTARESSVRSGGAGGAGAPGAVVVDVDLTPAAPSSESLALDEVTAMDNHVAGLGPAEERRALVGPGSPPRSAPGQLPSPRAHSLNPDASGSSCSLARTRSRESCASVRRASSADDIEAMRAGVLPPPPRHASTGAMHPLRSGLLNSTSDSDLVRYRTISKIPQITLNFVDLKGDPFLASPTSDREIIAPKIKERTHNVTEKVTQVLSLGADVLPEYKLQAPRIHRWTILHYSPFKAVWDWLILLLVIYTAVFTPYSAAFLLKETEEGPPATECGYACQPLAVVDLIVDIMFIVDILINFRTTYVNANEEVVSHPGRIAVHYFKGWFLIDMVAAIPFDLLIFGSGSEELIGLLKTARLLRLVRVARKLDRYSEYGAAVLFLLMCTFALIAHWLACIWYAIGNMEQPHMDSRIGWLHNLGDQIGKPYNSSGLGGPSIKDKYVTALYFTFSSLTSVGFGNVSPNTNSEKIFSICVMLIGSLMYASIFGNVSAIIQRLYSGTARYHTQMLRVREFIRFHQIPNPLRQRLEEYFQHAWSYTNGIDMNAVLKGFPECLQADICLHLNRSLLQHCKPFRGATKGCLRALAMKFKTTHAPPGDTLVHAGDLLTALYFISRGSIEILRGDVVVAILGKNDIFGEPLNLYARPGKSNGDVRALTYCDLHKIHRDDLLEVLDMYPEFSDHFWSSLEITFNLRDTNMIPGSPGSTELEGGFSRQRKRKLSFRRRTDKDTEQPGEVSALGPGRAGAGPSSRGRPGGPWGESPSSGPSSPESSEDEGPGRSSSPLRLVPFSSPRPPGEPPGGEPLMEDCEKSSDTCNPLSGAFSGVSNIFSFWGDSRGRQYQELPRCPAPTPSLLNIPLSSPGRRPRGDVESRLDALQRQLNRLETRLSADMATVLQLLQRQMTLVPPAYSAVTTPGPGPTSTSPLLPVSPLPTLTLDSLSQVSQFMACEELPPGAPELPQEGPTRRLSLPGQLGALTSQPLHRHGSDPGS
row,Compound,"hERG current change (%, negative = inhibition) at 10uM [%]"
1,COc1cccc(CN(Cc2ccccc2F)S(=O)(=O)c2ccc(S(=O)(=O)NCc3ccccc3)cc2)c1,28
2,Br.CC1CN2C(c3ccc(Cl)cc3)=CSC2=N1 (stereo not shown),-33.5
3,Cc1nc(N2CCN(S(=O)(=O)c3ccc(Br)cc3)CC2)c2c(C)c(C)sc2n1,-10.7
4,CC1CCCC(C)N1C(=O)c1cc(-c2ccc(Cl)c(Cl)c2)on1 (stereo not shown),-2.64
5,Cc1ccc(S(=O)(=O)NCCC(=O)Nc2ccc(C)c(Cl)c2)cc1C,-1.46
6,Cc1ccc(S(=O)(=O)Nc2ccccc2/C=N/c2nc3ccccc3n2C)cc1,-13.5
7,COc1ccc(C(=O)N2CCCC(Nc3ccc(C)c(C)c3)C2)cc1 (stereo not shown),-12.5
8,COc1ccc(-c2nc(CN3CCCCC3CCc3ccccn3)c(C)o2)cc1 (stereo not shown),-90.7
9,O=C(COc1ccccc1)NC1CCSc2ccccc21 (stereo not shown),0.0355
10,COc1cccc(Oc2cnc(N)nc2-c2ccc(OC)cc2O)c1,-29
11,CC(C(=O)Nc1cc([N+](=O)[O-])ccc1Cl)N1CCN(c2ccc(O)cc2)CC1 (stereo not shown),-13.3
12,COCCn1cnnc1SCC(=O)Nc1ccccc1C(=O)Nc1ccc2c(c1)OCO2,13.5
13,COc1ccc(-c2noc(CCC(=O)Nc3cc(Cl)c(OC)cc3OC)n2)cc1,6.64
14,CC(=O)N(CN1C(=O)c2ccc([N+](=O)[O-])cc2C1=O)c1cccc(C(=O)O)c1,12.7
15,COC(=O)CCCC1=CC2=CC(=O)C(C)(OC(=O)c3cccs3)C(=O)C2=CN1C1CCCC1 (stereo not shown),-5.91
16,CN1CCN(C(CC(=O)Nc2cccc(O)c2)C(=O)O)CC1 (stereo not shown),0.38
17,Cc1c(NC(=O)c2cc3ccccc3o2)c(=O)n(-c2ccccc2)n1C,-2.23
18,Cc1ccc(CN(C)C(=O)CCc2nc3sc4c(c3c(=O)[nH]2)CCCC4)o1,3.28
19,CCn1c(SCC(=O)N2CCCCC2C)nnc1-c1ccc(S(=O)(=O)N2CCN(C)CC2)cc1 (stereo not shown),-6.68
20,CC(=S)c1c(C)cc2cc(C)ccn12,15.9
21,Cc1ccccc1C(=O)N1CCC(C(=O)N2CCN(S(=O)(=O)c3ccccc3F)CC2)CC1,20.8
22,O=C(CN1C(=O)CC(c2ccccc2)S(=O)(=O)c2ccccc21)NC1CCCC1 (stereo not shown),-15.9

row,Compound,"hERG current change (%, negative = inhibition) at 10uM [%]"
1,CCC(=O)n1nc(-c2ccc(OC)cc2)nc1N,-1.79
2,Cc1cc(/C=N/NC(=O)COc2cccc3cccnc23)c(C)n1-c1ccc(O)cc1,0.881
3,CCOC(=O)c1c(C(C#N)C#N)cc(C)nc1C,8.69
4,COc1ccc(-c2c(C(C)=O)c(C)n(C)c2C)cc1,-5.72
5,CN(C)c1ccc(N=Nc2ccc(S(N)(=O)=O)cc2)cc1,17.9
6,Cc1ccc(O)c(NC(=O)c2cc([N+](=O)[O-])ccc2Cl)c1,-6.06
7,CCOC(=O)C(CSCC(=O)c1ccc(Cl)cc1)NC(=O)OC(C)(C)C (stereo not shown),-9.55
8,CCOC(=O)/C(C#N)=N/Nc1ccccc1C#N,-13.6
9,Cc1ccc(NC(=O)CNCC(c2ccccc2)N(C)C)cc1F.O=C(O)C(=O)O (stereo not shown),-38.1
10,CC(=O)Nc1ccc(S(=O)(=O)N[C@@H](C)C(=O)N2CCN(c3ccccn3)CC2)cc1,11.1
11,O=C(O)C1CCCCC1C(=O)NCc1ccccc1 (stereo not shown),-3.52
12,COc1ccccc1C1=NOC(CN2C(=O)c3ccccc3S2(=O)=O)C1 (stereo not shown),-22.8
13,CCOC(=O)c1c(NC(=O)OC)sc(C(=O)N(C)C)c1C,-9.46
14,CN(CC(=O)Nc1ccccc1Cl)C(=O)COC(=O)c1ccc(=O)n(Cc2ccccc2)n1,-12.4
15,COc1cc(-c2nc(-c3cccnc3)no2)cc(OC)c1OC,16
16,CN(c1cccc(NS(=O)(=O)c2ccccc2)c1)S(C)(=O)=O,43.1
17,O=C(CSCc1ccccc1)Nc1ccc(Cl)cn1,8.76
18,O=C(CSc1nnnn1-c1ccccc1)NC(=O)Cc1ccccc1,8.05
19,COc1cccc(/C=C/C(=O)NNC(=O)c2ccncc2)c1OC,11.4
20,Cc1ccc(CN=c2c([N+](=O)[O-])nn(-c3ccc4c(c3)OCCO4)n2O)cc1,5.68
21,Cc1csc(NC(=O)C2CCN(C(=O)CSc3nnc(C)n3Cc3ccccc3)CC2)n1,-15.1
22,CS(=O)(=O)Oc1ccc(Br)c2cccnc12,-11.7

row,Compound,"hERG current change (%, negative = inhibition) at 10uM [%]"
1,C=CCn1c(SCC(=O)c2ccc(O)c(O)c2)nnc1-c1cccc(OC)c1,10.8
2,CCOC(=O)C1=C(N)N2C(=O)C(C)SC2=C(C(=O)OCC)C1c1cc(OC)c(OC)c(OC)c1 (stereo not shown),1.27
3,CCOc1ccc(CN2CCNC(=O)C2CC(=O)NCc2ccccn2)cc1 (stereo not shown),-12.8
4,CCc1cc(=O)oc2cc(C)cc(OC(C)C(=O)NC3CCN(Cc4ccccc4)CC3)c12 (stereo not shown),-32.8
5,Cc1cc(=O)[nH]c(SC(C)C(=O)Nc2cccc3ccccc23)n1 (stereo not shown),6.32
6,CC(C)(C)Cc1nnc(NC(=O)c2ccc([N+](=O)[O-])cc2)s1,1.57
7,Cc1ccc(OC(=O)c2cccc(S(=O)(=O)N3CCN(C)CC3)c2)c(Br)c1,-19.5
8,Cc1ccc(/C=C/C(=O)Nc2cc(C)on2)cc1,22.7
9,CCOc1ccc(NC(=O)NCC2CCN(c3ccc(OC)cc3)C2)cc1 (stereo not shown),-7.35
10,O=C(CSc1nnnn1-c1ccc2c(c1)OCCO2)c1cccc2c1OCCO2,-7
11,COc1ccc(CNC(=O)CSc2nnc3c(n2)[nH]c2ccccc23)cc1,12.7
12,Cc1nc(CSc2nsc(C)c2C#N)cs1,0.507
13,Cc1nn(CCC(N)=S)c2nc(-c3cccs3)cc(C(F)(F)F)c12,7.77
14,Cc1ccc(OCCOCCN(C)C)c(Cl)c1.O=C(O)C(=O)O,-15.6
15,CN(Cc1ccccc1)C(=O)CN1C(=O)COc2ccc(S(=O)(=O)N3CCCC3)cc21,-19.4
16,NC(=O)c1ccccc1NC(=O)c1ccc2ccccc2c1,25.6
17,CC1Cn2c(CCc3ccccc3)nnc2S1 (stereo not shown),-10.9
18,COC(=O)c1sccc1NC(=O)CCC1CCCC1,3.48
19,CCOC(=O)c1c(CN(C)C)n(-c2ccccc2)c2cc(Br)c(OC)cc12,-58.6
20,O=C(O)c1cccnc1Nc1ccc(Cl)cc1,25
21,COc1ccc(-c2cc(C(=O)Nc3ccc(C(N)=O)cc3)c3ccccc3n2)cc1,10.3
22,COc1ccccc1NC(=O)COC(=O)CN1C(=O)C(=O)c2ccccc21,5.42

row,Compound,"hERG current change (%, negative = inhibition) at 10uM [%]"
1,COC(=O)CN(C)C(=O)c1ccccc1OC1CCN(S(C)(=O)=O)CC1,14.4
2,OCC1OC(n2cnc3c(NCCc4ccccc4)ncnc32)C(O)C1O (stereo not shown),27.8
3,Cc1nc(Cc2nnc(SC(C)C(=O)N3c4ccccc4NC(=O)C3(C)C)o2)cs1 (stereo not shown),-3.46
4,Fc1ccc(-c2cnc(-c3cccs3)o2)cc1,9.66
5,CCOC(=O)C1(Cc2ccccc2)CCN(Cc2cnc(N3CCOCC3)s2)CC1,-42.4
6,NC(N)=Nc1nc(CCN2C(=O)c3ccccc3C2=O)cs1,13.1
7,COc1ccccc1OCc1ccc(C(=O)Nc2ccc(Cl)cn2)o1,-10.4
8,NC(=Nc1ccc(Cl)cc1)c1ccccc1,0.791
9,O=C(NNC(=O)c1cccc(O)c1)Nc1ccc([N+](=O)[O-])cc1,16.3
10,Cc1ccc2ncnc(NCCCN3CCOCC3)c2c1,-13.6
11,O=C(/C=C\Nc1ccc(S(=O)(=O)Nc2ncccn2)cc1)c1cccc2ccccc12,-5.3
12,CC1(C)CC2CC(C)(CN2CC(=O)C(C#N)c2ccccc2)C1 (stereo not shown),0.17
13,O=C1Nc2ccc(F)cc2C12SCCS2,12.8
14,Cc1ccc(F)cc1NC(=O)CCc1c(C)[nH]c(=O)c(C#N)c1C,22.5
15,COc1cc(C(N)=O)cc(Cl)c1OCc1ccccc1,-1.84
16,COc1ccc(N2CC(C(=O)N3CCN(Cc4ccc5c(c4)OCO5)CC3)CC2=O)cc1 (stereo not shown),-19
17,CC1(C)SC2c3ccccc3C(=O)N2[C@@H]1C(=O)NC1CC1 (stereo partly shown),9.97
18,COc1ccc(C2/C(=C(/O)c3ccc(F)cc3)C(=O)C(=O)N2c2ccccn2)cc1OC (stereo not shown),10.8
19,O=C(NC(=S)Nc1ccccc1)c1ccc(-c2ccccc2)cc1,14.3
20,C/C(=N\NC(=O)Cc1ccc(O)cc1)c1cccnc1,21.5
21,COc1cc(/C=C2/C(=N)N3N=C(C)SC3=NC2=O)ccc1OS(=O)(=O)c1ccc(C)cc1,13.5
22,Cc1cc(C)n(C(=O)CCCCCC(=O)n2nc(C)cc2C)n1,2.47
